Experimental data: the supplement of paper PMC10126150
Sequences with one replicate were seen in a single cluster, so their values are uncertain.

Tested on: ATP
Assay: switch fluorescence ratio, 500 uM ATP over buffer (Cy3 cluster intensity, sum of 5 cycles each) (fold (ratio)); higher = stronger signal-on switching upon ATP binding; sequences stand for … in TCGTCGGCAGCGTCAGATGTGTATAAGAGACAGTTTTTTTTTTTTTTTTTTTTTTTTT…TC
Details: aptamer strand: ATP DNA aptamer (quencher-CACCTGGGGGAGTATTGCGGAGGAAGG + anchor), 100 nM annealed; ATP concentration: 500 uM; one replicate
Method in brief: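 Per cluster, summed Cy3 intensity from the target cycles was divided by that from the buffer cycles to give the fluorescence ratio, then averaged per switch-domain sequence. Clusters outside 100-1000 RFU were excluded. The Cy3-labelled switching-strand clusters, on a modified Illumina MiSeq flow-cell, were annealed to 100 nM quencher-labelled ATP aptamer and imaged in selection buffer, then after 15 min with 500 uM ATP at 22 °C, for five cycles with NaOH stripping and re-annealing between them.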
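Further: ATP exposure 15 min at 22 °C before imaging.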

Sequence | switch fluorescence ratio
CGATCCTCTC | 0.994
TCGAGCGGCG | 0.89
CGGAACTGGG | 1.03
ATACTTGGGA | 1.04
TAATCCATGA | 1.03
GAGATATTAT | 0.967
TAGGGGGCCG | 0.97
CGGTCCGACG | 1.03
TCTGAGCGG | 1.34
CTTGTCACTG | 1.06
GTGGGGTATC | 0.956
CTTGTATTTG | 1.06
CTGGACTAGT | 0.967
CAAGACACTA | 1.09
ATCAAGGTAA | 0.972
TGGGTTAGTC | 0.968
GGTTTACCGT | 0.958
ATGGAGACAG | 0.966
ATTGGGGACA | 1.05
AATGAGATGT | 0.95
GGTAGGTATG | 1
CATCCGGGGA | 1.82
GCTTGTGGGT | 1.03

Sequence | switch fluorescence ratio
ATGCCGAGT | 0.996
ACGCTTCTGC | 1.05
TACCGAGCTA | 1.48
GGTTTCTGTA | 0.985
TGCACTTACT | 1.28
GAGGACCCAT | 1.04
GTACTAGATA | 1.01
CACGTCTGGA | 0.975
ATGAGGAGT | 0.983
GTCGCGCCCT | 1.04
TTAAGTATGG | 0.943
ATCTATTGGC | 1.03
ATACGGTACT | 1.44
ACCCGTTGGT | 1.01
CATGATGCT | 1.01
AACCGAAAGC | 1.32
TAGGAACTAG | 0.989
GGTTTTGCCT | 0.973
GTGAGGATTC | 0.995
TTTCAACGCT | 1.33
GAATTCCTTT | 1.03
GATCGCGCT | 1.01
GATTAACTAA | 1

Sequence | switch fluorescence ratio
GGGTTATGTG | 0.983
TATTCTTACC | 1.01
TTTGGTCCAC | 0.996
GGCTCACCAC | 1.02
GTCTTATACG | 0.993
AGAGACGTGC | 1
TTCTAGCGAC | 1.16
TTTTAGGGA | 1.03
ACTTCGGTCA | 1.05
TTCCCTGAAT | 1.13
CGCATTCAAG | 1.1
CTGAAAAGGG | 0.976
CGGACGGGTA | 1.01
AACGTGAACC | 1.18
TTGAGAAGGT | 0.998
CTGATTTACA | 1.02
GTTAATGGTT | 1.05
CAAATTAGGT | 0.981
GCATGGGTCG | 0.975
AAAGTATAGT | 1.11
TTTATATTCC | 1.02
AGTCTCGACG | 1.01
TGACTAAAGA | 0.978

Sequence | switch fluorescence ratio
TCGGTAATCT | 1.04
GGCAGGGACG | 0.938
GATGCAGTTA | 1.02
GCAGTGGGAA | 1.02
AAGTGAAGCC | 1.02
AAGATCTGAT | 1.02
CGAGACCGTT | 1.01
CTCAATGCTT | 1.1
ATTGGCTAAA | 1.05
TGCAACGTCA | 1.07
CGTCGTGCTG | 0.99
GACCTAATTC | 1.05
CACAGAGGTT | 0.984
AAATTTGAGT | 0.982
GATGCCCTGT | 1.02
GTTATTCGGA | 0.985
ACCCTTCAAT | 1.01
CATTATCATG | 0.996
ATTATCTCTT | 0.99
ATACACGGTG | 1.05
GAGGTTCTGC | 0.939
AGATGGAAAA | 0.951
AACCCTATGT | 1.04

Sequence | switch fluorescence ratio
GTTCACTTCG | 1.02
TCACGCTTAC | 4.11
CTTTCCGGGA | 1.37
AATACAACGC | 1.03
ATCTCCCGTA | 1.01
AAATTCGATA | 1.02
ACGTGGCTC | 1.08
AACCCCCTAT | 1.22
CGTCGGTTGC | 1.05
AATGCAGGAT | 1.03
GGAACTAGTG | 0.995
CTCGGGACCT | 1.15
GAAGCAAGTT | 1.6
TGGATCCAAT | 1.02
CTATCGGTAT | 1.05
CGGACACGCT | 0.925
ATTCGCTTTC | 1.32
AGGGAGCTG | 0.983
TCTGCTCTTA | 1.04
CAAGGCTGCT | 1.01
CGAGGGTATC | 1.06
TCTGCATCAT | 1.07
CTCTAACGTT | 1.01

Sequence | switch fluorescence ratio
TAAGGGTAC | 1.01
ATCAGAAGAC | 1.08
GGACTCACGG | 1.09
GACCACTTTG | 1.05
CTGAAGCCAG | 1.26
TGCTTTACCT | 1.23
TTCCTGTAAA | 1.03
CTCGCTATGG | 1.99
CTTAAAGGGC | 1.07
TGAGTTCGGA | 1.03
ATACCCGGCG | 1.06
AATTCAGATC | 1.01
CCACGAGGGT | 1.01
CATTTTTGTC | 0.998
ATATGCTAGA | 0.989
GAGTGATACG | 1.11
GCGTGAGTC | 1.03
TGAGGCAAAA | 1.1
CGTCTGTATG | 0.994
TTGATGTCG | 1.14
GCGCGGGGCA | 1.06
CGGGTGTAAA | 0.987
ATACTGTACT | 1.55

Sequence | switch fluorescence ratio
CAAGGCACGG | 0.928
AAGAGACCCT | 0.989
AATCAAAACT | 1.71
CAGATGGGGG | 1
CGCCATTCCG | 1.06
AGAGTGATAT | 1.05
GACCATGGCC | 0.996
GTGATGAGAG | 0.988
AGAATAGCAT | 1.02
CCACCGTGCG | 1.39
AGTTCGTTAT | 0.995
ACCGAGACCT | 1.38
GGCACGTGAG | 1.04
CTATGTATCG | 0.973
AAAGCAGGTG | 2.75
CGGCAGCACC | 1.48
TCGGAGTTAA | 1.19
GTTGGGCAAG | 0.984
TTGATACGAT | 1.07
